Here are results for 9 molecules from article PMC11613296, “Post-Translational Modifications Control Phase Transitions of Tau” (ACS Central Science, 2024).

B1: Tau([…]), unmodified (WT) (peptide)
chain: not shown
notes: microtubule-associated protein Tau, […], free N-terminal cysteine and C-terminal carboxylic acid; numbers count on: 2N4R Tau; peptide characterisation is in the Supporting Information; also called unmodified Tau([…]); source: synthetic: chemical protein synthesis (SPPS of three segments, DSL and NCL), HPLC purified; SEC before assembly
B2: Tau([…]) pY310 (peptide)
chain: not shown
modifications: phosphotyrosine at 310
notes: microtubule-associated protein Tau, […]; numbers count on: 2N4R Tau; source: synthetic: chemical protein synthesis (SPPS of three segments, DSL and NCL), HPLC purified
B3: Tau([…]) pS352 (peptide)
chain: not shown
modifications: phosphoserine at 352
notes: as for B2
B4: Tau([…]) AcK369 (peptide)
chain: not shown
modifications: N-acetyllysine at 369
notes: as for B2
B5: Tau([…]) pS356 (peptide)
chain: not shown
modifications: phosphoserine at 356
notes: as for B2
B6: Tau([…]) AcK353 (peptide)
chain: not shown
modifications: N-acetyllysine at 353
notes: as for B2
B7: Tau([…]) P301S (peptide)
chain: not shown
notes: microtubule-associated protein Tau, […], with the mutation P301S linked to inherited FTDP-17 and CBD; numbers count on: 2N4R Tau; source: synthetic: chemical protein synthesis (SPPS of three segments, DSL and NCL), HPLC purified
B8: Tau([…]) AcK317 (peptide)
chain: not shown
modifications: N-acetyllysine at 317
notes: as for B2
B9: Tau([…]) AcK311 (peptide)
chain: not shown
modifications: N-acetyllysine at 311
notes: as for B2

Chain of 2N4R Tau(2–441) (P10636 other isoform, or with tags, fused parts or gaps): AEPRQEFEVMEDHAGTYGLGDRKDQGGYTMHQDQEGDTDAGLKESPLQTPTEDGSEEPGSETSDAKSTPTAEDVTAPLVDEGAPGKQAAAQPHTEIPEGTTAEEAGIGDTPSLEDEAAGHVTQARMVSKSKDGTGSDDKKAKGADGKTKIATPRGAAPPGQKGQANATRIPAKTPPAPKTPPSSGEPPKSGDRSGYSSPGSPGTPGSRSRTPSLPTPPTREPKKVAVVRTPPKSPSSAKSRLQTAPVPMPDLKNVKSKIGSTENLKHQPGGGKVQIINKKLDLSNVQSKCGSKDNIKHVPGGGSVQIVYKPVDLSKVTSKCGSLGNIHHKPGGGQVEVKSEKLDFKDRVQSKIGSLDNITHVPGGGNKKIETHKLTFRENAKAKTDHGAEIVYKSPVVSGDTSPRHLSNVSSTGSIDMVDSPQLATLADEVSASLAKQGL

The first series deals with the molecule itself. Nature of the series: cryo-EM structure; filaments of Tau(291–391) WT assembled without cofactor: 5 mg/mL, 10 mM phosphate buffer pH 7.2, 100 mM MgCl2, 10 mM DTT, 200 rpm shaking, 37 °C, 24 h.
Conditions: not given
Regarding B1, the binding result is listed as “binds”.

In another series the target is T1, 2N4R Tau(2–441) (human, UniProt P10636-8 2-441).
T1 construct: microtubule-associated protein Tau, 2N4R isoform, residues 2-441; numbers count on: 2N4R Tau; the Supporting Information may tell; also called recombinant 2N4R Tau; source: recombinant
As to the kind of experiment: ELISA; Tau(291–391) proteoforms immobilised on a PVC plate, recombinant 2N4R Tau(2–441) in solution, detected with Tau-13 mAb (residues 15–25) and anti-mouse IgG HRP; Langmuir binding curves, apparent KD, three replicates. The conditions noted are these: both partners purified. In general terms: ELISA stands for enzyme-linked immunosorbent assay.
Regarding B2, the binding result is on record as “binds”.
On the same count and under the same terms, as for B1, the entry is “binds”.
On the same count and under the same terms, as for B3, the entry is “binds”; as for B4, “binds”.
Same read-out and setting: as for B5, the entry is “binds”; as for B6, “binds”; as for B7, “binds”.
For the molecule B8, the binding result is on record as “binds”.
Same read-out and setting: as for B9, the entry is “binds”.
